Test results reported in the supplement of paper PMC3334620.
The full ranking holds about 33,000 sequences; the median of “E-score (-0.5 to 0.5)” is about -0.04, and the highest 2% start at about 0.36. The list shows a part of the results.

The sequences below were run against T1, Hmlalpha2 (UniProt P0CY09) (assay: PBM E-score (8-mer binding enrichment) (E-score (-0.5 to 0.5)); higher = stronger / more preferred TF binding; most listed sequences are background and not binding sites). Conditions: protein concentration: 200 nM; construct: GST-full length.
T1 sequence: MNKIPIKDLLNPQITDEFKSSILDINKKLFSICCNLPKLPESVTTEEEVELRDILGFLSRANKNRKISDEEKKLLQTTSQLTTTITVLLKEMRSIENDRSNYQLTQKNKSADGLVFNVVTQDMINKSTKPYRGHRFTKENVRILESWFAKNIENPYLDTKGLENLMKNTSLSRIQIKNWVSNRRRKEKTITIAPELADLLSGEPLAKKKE
Protocol: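 Universal 'all 10-mer' protein binding microarrays (Agilent AMADID 015681) probed with GST-tagged S. cerevisiae TFs (full-length or DBD) made by in vitro transcription/translation (PURExpress), about 100-200 nM. Bound TF was detected with fluorescent anti-GST. Each ungapped 8-mer (which stands for itself and its reverse complement) is scored by the PBM enrichment score (E-score), a modified Wilcoxon-Mann-Whitney statistic from -0.5 to +0.5, computed with the Universal PBM Analysis Suite. Scale: above 0.35 generally sequence-specific binding.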

Which “PBM E-score” value does the source give for CCCAATCA here?
Its value is -0.113.

Which “PBM E-score” value does the source give for CGTAGGTA here?
Its value is 0.0458.

Which “PBM E-score” value does the source give for ATGTGACA here?
Its value is 0.15.

How did the “PBM E-score” value turn out when CAAGTGCG was run?
Its value is -0.0741.

With AGATCTCC as the sequence, how does the “PBM E-score” value read?
The value was -0.287.

AGGCCGGG was tested. Which “PBM E-score” value did it give?
The value was -0.193.

ATACCGGA was tested. Which “PBM E-score” value did it give?
The value was -0.0288.

With CGCAGAAG as the sequence, how does the “PBM E-score” value read?
Its value is -0.0475.

Which “PBM E-score” value does the source give for GGGTCGAA here?
The value was -0.276.

How did the “PBM E-score” value turn out when AGAACTAG was run?
Its value is -0.104.

Which “PBM E-score” value does the source give for TCGCGCGA here?
The value was -0.0296.

TAACGTTA was tested. Which “PBM E-score” value did it give?
Its value is 0.268.

How did the “PBM E-score” value turn out when ATTGATCC was run?
The value was -0.048.

AGATCCAA was tested. Which “PBM E-score” value did it give?
The value was -0.0165.

How did the “PBM E-score” value turn out when CGAATACC was run?
The value was -0.0493.

Which “PBM E-score” value does the source give for GACGTCGA here?
Its value is 0.0909.

ACTGTCGA was tested. Which “PBM E-score” value did it give?
Its value is 0.0139.

ACCAGTGG was tested. Which “PBM E-score” value did it give?
The value was -0.0748.

For ACAGACAG, which “PBM E-score” value is on record?
Its value is -0.0215.

GGCCTAAA was tested. Which “PBM E-score” value did it give?
Its value is -0.148.

With ATCCTTTC as the sequence, how does the “PBM E-score” value read?
Its value is 0.00253.

With ACAGTGGT as the sequence, how does the “PBM E-score” value read?
The value was -0.14.

For CCGATCTA, which “PBM E-score” value is on record?
The value was -0.0562.

For GGCGGGGA, which “PBM E-score” value is on record?
The value was -0.212.

CGAAACGC was tested. Which “PBM E-score” value did it give?
Its value is -0.104.

For AGTAGCGG, which “PBM E-score” value is on record?
Its value is -0.155.

How did the “PBM E-score” value turn out when GAATGCCA was run?
The value was -0.207.

With ACACGCGT as the sequence, how does the “PBM E-score” value read?
Its value is 0.43.

GCGTCAAA was tested. Which “PBM E-score” value did it give?
Its value is 0.148.

With CGGTTACC as the sequence, how does the “PBM E-score” value read?
Its value is -0.169.

AGTTGCTC was tested. Which “PBM E-score” value did it give?
Its value is -0.168.

With GCAACGCC as the sequence, how does the “PBM E-score” value read?
Its value is 0.0517.

ATATTAAG was tested. Which “PBM E-score” value did it give?
The value was 0.131.

For CACTGGTC, which “PBM E-score” value is on record?
Its value is -0.109.

For AACGGCCA, which “PBM E-score” value is on record?
Its value is -0.0115.

AAAACTTT was tested. Which “PBM E-score” value did it give?
Its value is 0.0466.

AAATGACC was tested. Which “PBM E-score” value did it give?
Its value is -0.147.

With AGCTGGGA as the sequence, how does the “PBM E-score” value read?
The value was -0.165.

CACAGCCA was tested. Which “PBM E-score” value did it give?
The value was 0.139.

For AGGCCGTC, which “PBM E-score” value is on record?
Its value is -0.187.

CGCCCAGC was tested. Which “PBM E-score” value did it give?
The value was -0.189.

GAGTACCC was tested. Which “PBM E-score” value did it give?
Its value is -0.19.

With GCGTAGGA as the sequence, how does the “PBM E-score” value read?
The value was -0.144.

For AGCCATCC, which “PBM E-score” value is on record?
Its value is -0.153.

How did the “PBM E-score” value turn out when CTGAACAC was run?
The value was 0.158.

AGGTATAG was tested. Which “PBM E-score” value did it give?
The value was -0.145.

With CACGACCA as the sequence, how does the “PBM E-score” value read?
The value was 0.127.

CTACCTGC was tested. Which “PBM E-score” value did it give?
Its value is -0.087.

For ATCCGAGA, which “PBM E-score” value is on record?
Its value is -0.239.

With GCTATGAA as the sequence, how does the “PBM E-score” value read?
The value was 0.0788.

For GAAACTAA, which “PBM E-score” value is on record?
Its value is 0.0477.

Which “PBM E-score” value does the source give for AACACAAT here?
Its value is 0.373.

For GTCCAGTA, which “PBM E-score” value is on record?
The value was -0.054.

With ATTGTACG as the sequence, how does the “PBM E-score” value read?
The value was 0.123.

How did the “PBM E-score” value turn out when ATCGGGTG was run?
Its value is -0.0806.

Which “PBM E-score” value does the source give for CTGCCCCA here?
The value was -0.248.

With ATACACGC as the sequence, how does the “PBM E-score” value read?
Its value is 0.449.

For CTGGCGTA, which “PBM E-score” value is on record?
Its value is -0.0219.

For CTATGGTC, which “PBM E-score” value is on record?
The value was -0.265.

How did the “PBM E-score” value turn out when AAGGTATC was run?
The value was -0.224.

How did the “PBM E-score” value turn out when AATCCGCA was run?
The value was -0.211.

AATGTGCT was tested. Which “PBM E-score” value did it give?
Its value is 0.0332.

Which “PBM E-score” value does the source give for TCCGGTCA here?
The value was -0.0667.

With CTGGCATC as the sequence, how does the “PBM E-score” value read?
Its value is -0.19.

ACGCTTTC was tested. Which “PBM E-score” value did it give?
Its value is -0.0168.

With AGGGCCTA as the sequence, how does the “PBM E-score” value read?
The value was -0.182.

With AAGGGAGA as the sequence, how does the “PBM E-score” value read?
The value was 0.0111.

With CAAACAAA as the sequence, how does the “PBM E-score” value read?
Its value is 0.0667.

With TGGCTACA as the sequence, how does the “PBM E-score” value read?
The value was 0.0258.

Which “PBM E-score” value does the source give for CACCTTGC here?
The value was 0.0122.

How did the “PBM E-score” value turn out when GCTGCATA was run?
The value was 0.133.

CTCATCAC was tested. Which “PBM E-score” value did it give?
The value was 0.00381.

Which “PBM E-score” value does the source give for GATCATGA here?
Its value is 0.0598.

Which “PBM E-score” value does the source give for ACCCCGAT here?
Its value is -0.328.

AGCTTTCA was tested. Which “PBM E-score” value did it give?
Its value is 0.099.

How did the “PBM E-score” value turn out when AATGGCCA was run?
Its value is -0.165.

For CAAACAGC, which “PBM E-score” value is on record?
The value was 2e-05.

For AGCGTCGA, which “PBM E-score” value is on record?
Its value is 0.176.

With AAGTGCTA as the sequence, how does the “PBM E-score” value read?
Its value is 0.0881.

How did the “PBM E-score” value turn out when CGACGGTC was run?
Its value is -0.112.

GGTTGGAC was tested. Which “PBM E-score” value did it give?
The value was -0.174.

With TCCACTAA as the sequence, how does the “PBM E-score” value read?
The value was -0.0128.

Which “PBM E-score” value does the source give for ACTCCTAA here?
The value was -0.0597.

Which “PBM E-score” value does the source give for CTGGGTAA here?
Its value is 0.125.

Which “PBM E-score” value does the source give for CGCCCGAG here?
Its value is -0.112.

For ATAACATA, which “PBM E-score” value is on record?
The value was 0.437.

With ACTGCGTA as the sequence, how does the “PBM E-score” value read?
Its value is 0.244.

For AAGGGCCA, which “PBM E-score” value is on record?
The value was -0.0263.

For CGCGCAAA, which “PBM E-score” value is on record?
Its value is 0.136.

Which “PBM E-score” value does the source give for GGTGCGAA here?
Its value is -0.0789.

Which “PBM E-score” value does the source give for ATAGAGTA here?
Its value is 0.117.

Which “PBM E-score” value does the source give for TCGACACA here?
Its value is 0.318.

Which “PBM E-score” value does the source give for GAACACGA here?
Its value is 0.287.

Which “PBM E-score” value does the source give for ACAAGCCG here?
The value was 0.146.

For AAGATAGT, which “PBM E-score” value is on record?
Its value is 0.0103.

Which “PBM E-score” value does the source give for GGTTCAAC here?
The value was -0.0347.

ATCTTATA was tested. Which “PBM E-score” value did it give?
Its value is 0.00606.

How did the “PBM E-score” value turn out when ATTGACCG was run?
The value was 0.0885.

Which “PBM E-score” value does the source give for CCCAGATA here?
The value was -0.316.

For ACAGCCGC, which “PBM E-score” value is on record?
The value was -0.252.

How did the “PBM E-score” value turn out when CAACGCGG was run?
The value was 0.176.

For ACCATTCA, which “PBM E-score” value is on record?
The value was 0.191.

For ACTTTGTC, which “PBM E-score” value is on record?
The value was 0.0436.

With CCAGCTCA as the sequence, how does the “PBM E-score” value read?
The value was -0.18.

GGGGCGTA was tested. Which “PBM E-score” value did it give?
Its value is -0.0616.

For CCGGCTGA, which “PBM E-score” value is on record?
Its value is -0.141.

With CACTACCG as the sequence, how does the “PBM E-score” value read?
The value was -0.241.

For TCGTACAA, which “PBM E-score” value is on record?
The value was 0.212.

For AAGAAAAG, which “PBM E-score” value is on record?
Its value is -0.024.

With CCAAGCCA as the sequence, how does the “PBM E-score” value read?
The value was -0.137.
